Read counts are not given, so values of variants with three or more changes are uncertain.
B1: OR4K15 (parent)
chain: GUUAACGGUCAUAGGCCAUGGAAACUAGGAGCACCAUUUCGCUGCCAGUGAAGAAAUGAACAAAGAAAAUCUGGGCCAGGCAGGCAUCAAAAGAAAUAGUCUUGCGCUCAACCAGAAAGUCUGUAAUCAUUUUAAGGGUA

Variants of: B1
Assay: self-cleavage, relative activity (ratio to wild type); higher = more cleavage; in vitro, sequencing; the parent is a self-cleaving ribozyme
U12C A64G U87C showed a self-cleavage of 0.92.
C17U A55G A111G gave a self-cleavage of 0.06.
In the case of U12C A27U A33G, the self-cleavage is reported as 1.33.
G15A A55G A56G gave a self-cleavage of 1.13.
With U12C U38C U43C A140U the self-cleavage was 0.85.
For C16U A33C A47G U49G A95G, the self-cleavage was 1.12.
In the case of A13G A33G C40U U102A U122C A140G, the self-cleavage is reported as 0.58.
For A13U A22G A23G U57C, the self-cleavage was 1.03.
Work on U12C C17U A36U yielded a self-cleavage of 1.48.
G15A A33G A51G gave a self-cleavage of 0.51.
In the case of C17A A69G A78G, the self-cleavage is reported as 0.5.
In the case of U12C A64G A82G, the self-cleavage is reported as 0.46.
With A13G A86G A129G U139C the self-cleavage was 1.04.
In the case of A13G C25U A30G U37A U120C U124C, the self-cleavage is reported as 0.33.
A13U A27C U70C A92U U127C U133C showed a self-cleavage of 0.4.
U12C U19C A30G A86G showed a self-cleavage of 1.39.
With C16U A54G A118U A125U the self-cleavage was 1.1.
Variant U12C G14U A24G A69G has a self-cleavage of 0.7.
With G15A C16U U87C A94G the self-cleavage was 2.27.
A13G U37C A54U A69U U108C A114G C128A U131C gave a self-cleavage of 0.03.
Work on G15A U43C A63U A64G A95G yielded a self-cleavage of 1.48.
G15U A63G C128U A129C gave a self-cleavage of 0.5.
U12C A22G U37C G115U showed a self-cleavage of 0.02.
With A13U U43C U131C the self-cleavage was 0.96.
U12C A36G A59G A90G U108C A129G gave a self-cleavage of 0.01.
C16A C42U G80C gave a self-cleavage of 0.35.
For A13G A51G A110G, the self-cleavage was 0.26.
With U12G A30U A90C the self-cleavage was 1.08.
Work on C17U U70A U87C yielded a self-cleavage of 0.54.
A13G A89G C101U A126G showed a self-cleavage of 0.08.
Work on A13G U57C C71A yielded a self-cleavage of 0.51.
In the case of A13G G41C A60G U103C, the self-cleavage is reported as 0.98.
C17A A52G G53A G136A gave a self-cleavage of 2.14.
In the case of A13G A56G A78C U120C, the self-cleavage is reported as 0.44.
A13G U39C A111G gave a self-cleavage of 0.12.
A13G A30G A96G showed a self-cleavage of 1.34.
A13G A95G A129G showed a self-cleavage of 1.61.
With G15A C45U A118G U124A the self-cleavage was 0.58.
G14A U38A U39C A67G gave a self-cleavage of 1.04.
With A13G A23G A62U A69U the self-cleavage was 0.91.
In the case of U12C A54G U122A, the self-cleavage is reported as 0.8.
A13G A18G A23G showed a self-cleavage of 0.45.
G14A A22U A96U U130A showed a self-cleavage of 1.11.
In the case of U12C U49C U132C, the self-cleavage is reported as 1.13.
A13G U70C G93U gave a self-cleavage of 0.42.
U12C A86U U127C gave a self-cleavage of 0.85.
With A13G U70C A114G U132C the self-cleavage was 0.31.
In the case of U12C G48A A86G, the self-cleavage is reported as 0.95.
In the case of C17U U38C A96G U97A A129G, the self-cleavage is reported as 1.82.
Work on G15A U26A A59G A60G yielded a self-cleavage of 1.22.
With A13U A52G A118G the self-cleavage was 0.85.
C16U A94U A117G A140U showed a self-cleavage of 1.83.
In the case of C17U A91G U103C A118G, the self-cleavage is reported as 0.05.
Work on A13G U43C A118G yielded a self-cleavage of 0.95.
With G15U A52G A95G the self-cleavage was 1.52.
For G14A U19A C42U A52G A56G A60U A86G, the self-cleavage was 1.01.
Variant A13G A63G A64G A116G has a self-cleavage of 1.02.
Work on G14A A33G U133A yielded a self-cleavage of 1.16.
In the case of U12C A59G A110G U120C, the self-cleavage is reported as 0.16.
Variant G14A A47U A63G A92G A135U has a self-cleavage of 0.13.
Work on A13G A24G C35U A59G A66G yielded a self-cleavage of 0.6.
A13U U43C A62U U108C A116U showed a self-cleavage of 0.02.
For A13U A86G U87A, the self-cleavage was 1.49.
A13U A86G A94G U122C A140G gave a self-cleavage of 0.67.
With U12C U39C A82G U139G the self-cleavage was 0.97.
Work on A13U A33G A67G A91G A95G A125G yielded a self-cleavage of 0.93.
For A18C A56U A67G U108C U124C, the self-cleavage was 0.01.
A13U A30G A96G U127C showed a self-cleavage of 1.1.
For A13G A55G C88U A92G, the self-cleavage was 0.61.
In the case of A13G A98G U108C, the self-cleavage is reported as 0.05.
In the case of G14A A52G A62G, the self-cleavage is reported as 1.
In the case of G14A A86G A135U, the self-cleavage is reported as 1.09.
With G15A A60G G75C A86G A126G the self-cleavage was 0.07.
A13G A68G A78G A126G showed a self-cleavage of 0.25.
With C17U C88A C109A the self-cleavage was 0.18.
In the case of A13U A56G A92G A116U U122A, the self-cleavage is reported as 0.05.
U12C A94G U103C gave a self-cleavage of 1.16.
Work on A13G A18U A116G yielded a self-cleavage of 0.19.
For A18C A22G A36G U100C U122C, the self-cleavage was 1.88.
U12C U39G U100C U131C gave a self-cleavage of 1.21.
In the case of U12C U39C A64G U108C, the self-cleavage is reported as 0.01.
U12C U49G A64G A89G A134U showed a self-cleavage of 1.69.
With U12C A23G U39C U43A the self-cleavage was 0.75.
Variant U12C A24G A78C A95G A117G has a self-cleavage of 0.29.
In the case of A13G A98G U102C, the self-cleavage is reported as 2.11.
For U12C A47C A55G A78G A89G A118G, the self-cleavage was 0.04.
With G15U A33U U43C U87C A89U the self-cleavage was 1.47.
Work on A13C A64G A86G A117G yielded a self-cleavage of 1.02.
Work on A13G A52G A63C A64G A96G U130C yielded a self-cleavage of 1.15.
For G14A U39C A52G A59G A67G A111G, the self-cleavage was 0.02.
U12C A54U G65A A98G showed a self-cleavage of 0.
A18C A55G A60G showed a self-cleavage of 0.89.
With A13U G28U U39C A51G A111G U130C the self-cleavage was 0.03.
In the case of A13G U43C A64G, the self-cleavage is reported as 1.2.
U12C A64G A92G A96U A117G gave a self-cleavage of 1.67.
Work on A13G A23C A66G yielded a self-cleavage of 0.85.
With U12C A59G A66G U70A C109U the self-cleavage was 0.17.
Variant U12C U37C U102C has a self-cleavage of 1.
For A13G G44A C45A U49C G79A, the self-cleavage was 0.03.
With A13G A60G A92G the self-cleavage was 0.
With A13G U43C U57C A67G A78G A111G the self-cleavage was 0.03.
Work on C17U A33G A111G yielded a self-cleavage of 0.07.
A13G A33G U38C showed a self-cleavage of 0.48.
In the case of U12C A64G A90G U127C, the self-cleavage is reported as 0.42.
Work on G15A A60G A82U A129G yielded a self-cleavage of 0.04.
For U12C A30G A90G U131C, the self-cleavage was 0.46.
Work on A13U U37C G50A A86U yielded a self-cleavage of 1.35.
For C16U A51G A111G, the self-cleavage was 0.07.
A13G A51U U122A gave a self-cleavage of 1.58.
Work on A13C A22G A56U U57C A90G yielded a self-cleavage of 1.39.
For C16U A24G A47G U120C, the self-cleavage was 0.85.
For A13U U57C A69U, the self-cleavage was 1.1.
A13U A68G A114G showed a self-cleavage of 1.1.
In the case of U12C U38C U43C G48A A67G A118G, the self-cleavage is reported as 0.4.
For C17U C42U A55G C113U, the self-cleavage was 0.05.
Variant G15A A33U A56G has a self-cleavage of 0.98.
Work on U12C A96G U100C A114U yielded a self-cleavage of 0.09.
Variant U12C G14U A78G U108C has a self-cleavage of 0.1.
C17U A52U A68G gave a self-cleavage of 0.68.
Variant A13U A52G A96G U102C has a self-cleavage of 2.28.
For C16A A82G U122C, the self-cleavage was 0.39.
U12C A96G U131C A134G showed a self-cleavage of 0.52.
With A18C A52U A78G the self-cleavage was 0.12.
In the case of C16U U103C A134G G138A, the self-cleavage is reported as 1.
Variant C17U U72C U87G A91U A95G has a self-cleavage of 0.19.
With C16U U87C C105G the self-cleavage was 0.14.
For G14A U37C A55G U103C, the self-cleavage was 0.06.
In the case of U12C A36C U49A A91G, the self-cleavage is reported as 0.71.
With U12C A30G A62G A69G the self-cleavage was 1.07.
In the case of U12C U57C U120C, the self-cleavage is reported as 0.9.
With U12C U49A A52G the self-cleavage was 1.14.
Variant A13G A33U U43C A62G A135U has a self-cleavage of 0.65.
In the case of A13G U37C U39C A69G U122C, the self-cleavage is reported as 1.29.
Work on C17U A63G A135G yielded a self-cleavage of 1.92.
A13G A63G G123A showed a self-cleavage of 0.66.
G14A A18U U87C A96G A134G gave a self-cleavage of 1.01.
A13G A23G A51U showed a self-cleavage of 0.58.
With C17U A117G A118G the self-cleavage was 1.19.
A13G U100C U120A showed a self-cleavage of 1.51.
U12C U49A A117G showed a self-cleavage of 0.83.
For A13C U103C A118G U130C, the self-cleavage was 0.84.
For U12C C32U A55U U72C, the self-cleavage was 0.44.
With A13G A98G U130C the self-cleavage was 0.32.
In the case of G15U A55G A69U U97C U122C, the self-cleavage is reported as 2.17.
Work on A13G U39C U57C U130C yielded a self-cleavage of 1.11.
For A13G U19C A33G A52G A60G, the self-cleavage was 0.85.
Variant U12C A63G A64G has a self-cleavage of 1.22.
With U12C A78G A90G A96C the self-cleavage was 0.07.
Variant U12C A22G U37C A55U C109U has a self-cleavage of 0.37.
For C17U A22G A64G U132C, the self-cleavage was 0.53.
A13G A62G A94U U102C U127C showed a self-cleavage of 1.32.
Variant G14A A30G A78G A111G A129G U131C has a self-cleavage of 0.
G14A U26A U38A A95C U108C gave a self-cleavage of 0.01.
In the case of C17U A92G A94G, the self-cleavage is reported as 1.6.
U12C A91G A116G U131C showed a self-cleavage of 0.48.
In the case of A13G C121A U131C, the self-cleavage is reported as 1.86.
Variant U12C G53A U122A has a self-cleavage of 0.86.
G14A A51G A64G showed a self-cleavage of 1.24.
Work on G15A A68G U70C A82U A91G yielded a self-cleavage of 0.13.
Variant U12C C17A A47C A60G A90G U103A A111G has a self-cleavage of 0.01.
U12C U38A A98G A111G showed a self-cleavage of 0.02.
In the case of G15A U39C A69G A92G, the self-cleavage is reported as 0.94.
Work on U12C A30C U57A A68G yielded a self-cleavage of 1.03.
Variant G15U A22G A23G U70A A90G A98G has a self-cleavage of 0.21.
In the case of U12C U70C A116U U122A, the self-cleavage is reported as 0.14.
For A13G A51U U87C U131A, the self-cleavage was 0.71.
U12C U122A A134G gave a self-cleavage of 1.16.

— the RNAGym collection of RNA variant scans (doi:10.7554/elife.90254)
